Source: US20020155518A1, “Method of detecting compounds that control fungal diseases via effects on sporulation” (priority 2000, published 2002)

Test system: Aspergillus nidulans
Experiment: Sporulation assay, paper disc diffusion on PDA seeded with spores
Type: cell-based, Aspergillus nidulans strain 003 (ATCC 36321)
Conditions: 20μg per disc, Yes/No; for Active: Active = discolored zone ≧15 mm in diameter including filter paper disc; for Inactive: Inactive = discolored zone <10 mm including filter paper disc or completely absent; for Moderately active: Moderately active = discolored zone 10-14 mm in diameter including filter paper disc

| Compound | Active | Inactive | Moderately active |
| --- | --- | --- | --- |
| C=CCOC(Cn1ccnc1)c1ccc(Cl)cc1Cl (stereo not shown) [Imazalil] | No | Yes | No |
| CC(=O)N1CCN(c2ccc(OCC3COC(Cn4ccnc4)(c4ccc(Cl)cc4Cl)O3)cc2)CC1 (stereo not shown) [Ketoconazole] | – | Yes | No |
| N#Cc1c(Cl)c(Cl)c(Cl)c(C#N)c1Cl [Chlorothalonil] | No | Yes | No |
| CC(Cc1ccc(C(C)(C)C)cc1)CN1CCCCC1 (stereo not shown) [Fenpropidin] | No | Yes | No |
| C=CC1(C)OC(=O)N(c2cc(Cl)cc(Cl)c2)C1=O (stereo not shown) [Vinclozolin] | No | Yes | No |
| CCCCNC(=O)n1c(NC(=O)OC)nc2ccccc21 [Benomyl] | No | Yes | No |
| C[C@@H]1[C@H](O)[C@@H](C)/C=C/C=C/C=C/C=C/C=C/C=C/C=C/[C@H](O[C@@H]2O[C@H](C)[C@@H](O)[C@H](N)[C@@H]2O)C[C@@H]2O[C@](O)(C[C@@H](O)C[C@@H](O)[C@H](O)CC[C@@H](O)C[C@@H](O)CC(=O)O[C@H]1C)C[C@H](O)[C@H]2C(=O)O [Amphotericin B] | – | Yes | No |
| CCN(CC)CCO[C@H]1CC[C@@]2(C)C(=CC[C@@H]3[C@@H]2CC[C@]2(C)C(=O)CC[C@@H]32)C1 [Compound U-18666] | No | Yes | No |
| Cc1cccc(N(C)C(=S)Oc2ccc3ccccc3c2)c1 [Tolnaftate] | No | Yes | No |
| C[C@@H]1C[C@@H]([C@H](O)CC2CC(=O)NC(=O)C2)C(=O)[C@@H](C)C1 [Cycloheximide] | No | Yes | No |
| OC(c1ccc(Cl)cc1)(c1cncnc1)c1ccccc1Cl (stereo not shown) [Fenarimol] | No | Yes | No |
| CC1(C)CCC(Cc2ccc(Cl)cc2)C1(O)Cn1cncn1 (stereo not shown) [Metconazole] | No | Yes | No |
| Cc1cc(C)nc(Nc2ccccc2)n1 [Pyrimethanil] | No | Yes | No |
| CCCCCCCCCCCCCN1CC(C)OC(C)C1 (stereo not shown) [Tridemorph] | No | Yes | No |
| COCC(=O)N(c1c(C)cccc1C)C(C)C(=O)OC (stereo not shown) [Metalaxyl] | No | Yes | No |
| Nc1nc(=O)[nH]cc1F [Compound 5-F-Cytosine, 5-F-Cytosine] | No | Yes | No |
| NC(=O)OC[C@H](O)[C@@H](O)[C@H](N)C(=O)N[C@H](C(=O)O)[C@H]1O[C@@H](n2cc(C(=O)O)c(=O)[nH]c2=O)[C@H](O)[C@@H]1O [Polyoxin D] | No | Yes | No |
| Fc1ccc(Oc2ccnc3cc(Cl)cc(Cl)c23)cc1 [Quinoxifen] | No | Yes | No |
| CO/C=C(/C(=O)OC)c1ccccc1Oc1cc(Oc2ccccc2C#N)ncn1 [Azoxystrobin] | No | Yes | No |
| CCOc1ccc(NC(=O)OC(C)C)cc1OCC [Diethofencarb] | No | Yes | No |
